In all, about 50,000 compounds went through this assay and about 800 (1.6%) showed an effect of 50% or more. This is one part of the list.

For the assay, the target named is Bcl-2-like protein 10 (Homo sapiens) (UniProt Q9HD36). The assay can be described thus: TR3 peptide-Bcl-B binding displacers, biochemical primary FP assay, phenotype converters (AID 1240).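 Further: 0% = Bcl-B with tracer peptide and DMSO and 100% = tracer peptide lacking Bcl-B.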 Conditions: GST-Bcl-B / FITC-TR3 peptide fluorescence polarization; stronger effect = higher value; compound at 3.75 mg/L. For orientation: Polarisation of emitted light reports the rotation of a fluorescent probe.
Chain of UniProt Q9HD36 (Q9HD36 whole entry, looked up): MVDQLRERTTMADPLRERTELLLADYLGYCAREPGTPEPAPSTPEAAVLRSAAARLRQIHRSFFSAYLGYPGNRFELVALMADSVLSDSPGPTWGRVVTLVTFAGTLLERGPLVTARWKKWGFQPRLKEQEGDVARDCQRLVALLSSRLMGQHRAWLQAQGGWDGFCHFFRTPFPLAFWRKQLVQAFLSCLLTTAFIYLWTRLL
On to `CC1CCN(C(=O)c2ccc(CN(c3ccccc3)S(C)(=O)=O)cc2)CC1`, for which the displacement is -2.1%. The value for `Ic1ccc(Nc2nc3nonc3nc2N2CCOCC2)cc1` was -2.4%; that for `Cc1ccccc1OCc1nc(-c2ccc([N+](=O)[O-])cc2)no1` was 6.5%. As for `COc1ccccc1Cc1noc(COc2ccc(Cl)cc2)n1`, the displacement was 2.2%. On to `O=C(NCCc1ccccc1)c1cc2nc(-c3ccc([N+](=O)[O-])cc3)cc(C(F)(F)F)n2n1`, for which the displacement is 12.7%. For the molecule `CCOc1ccc(-c2cc(OCC)c3c(C)oc(C)c3c(=[O+]CC)c2)cc1`, the displacement worked out at 2.4%. As for `Cc1ccc(N=Cc2ccc(O)cc2O)c(C)c1`, the figure is 2.7%; as for `CC1=C(C(=O)OCC(C)C)C(c2ccc(OCc3ccccc3)cc2)C2=C(CCCC2=O)N1` (configuration not stated), -3.4%; as for `Cc1cc(Br)cc(C)c1NC(=O)COc1ccccc1`, 12.4%. For `CCCOC(=O)c1c(-c2ccccc2)csc1N`, the displacement is 1.2%. As for `COC(=O)c1ccc(NC(=O)CSC(N)=O)cc1`, the figure is 0.6%. The value for `Cc1cc(C(=O)N/N=C/c2ccc(-c3cccc(C(=O)O)c3)o2)n[nH]1` was -13.4%; that for `Cc1ccnc(Nc2nc(-c3ccc(Br)cc3)cs2)c1` was 14.5%; that for `CCC12CN3CC(CC)(CN(C1)C3c1ccc(OC)cc1)C2=O` (configuration not stated) was 2.9%. For `C/C(Cn1nnc([N+](=O)[O-])n1)=N\NC(=O)c1cccc(Cl)c1`, the displacement was -5.7%. The value for `COc1ccc(OC)c(NC(=O)CN(c2ccccc2)S(=O)(=O)c2ccccc2[N+](=O)[O-])c1` was 10.6%; that for `O=C(O)c1ccc(CP(=O)(c2ccccc2)c2ccccc2)cc1` was 4.9%. Turning to `Cc1cc(C)c([N+](=O)[O-])cc1-c1ccc(/C=c2\sc3nc4ccccc4n3c2=O)o1`, the displacement was found to be 14.6%. Consider `Nn1nnnc1Nc1cccc2ccccc12`, for which the displacement is -15.7%. In the case of `COc1ccc(S(=O)(=O)N(CC(=O)Nc2ccc(C)c(Cl)c2)Cc2ccccc2)cc1`, the displacement was determined as 2.6%. In the case of `c1ccc2c(N3CCCCC3)c3ccccc3nc2c1`, the displacement was -9.3%. As for `CCOc1ccc(NC(=S)NCCc2ccc(S(N)(=O)=O)cc2)cc1`, the figure is 13.2%; as for `CC(=O)N(C1CC(C)C(C#N)(C#N)C1(C#N)C#N)N(C)C` (configuration not stated), -13.1%; as for `CCOC(=O)c1sc(C)c2c(=O)n(CC(=O)c3ccc(Br)cc3)nnc12`, 0.9%. As to `Cc1ccc(N2CC(C(=O)Nc3ccc(N(C)C)cc3)CC2=O)cc1` (configuration not stated), the displacement was -1.1%. As to `Cc1ccc2oc(-c3ccc(NC(=O)/C=C/c4ccccc4)cc3O)nc2c1`, the displacement is 7%.

On to `N/C(=N\OC(=O)c1ccc2ccccc2c1)c1cccc([N+](=O)[O-])c1`, for which the displacement was -7.7%.

Consider `COc1ccc(C2/C(=C(\O)c3ccc(C)cc3)C(=O)C(=O)N2c2nncs2)cc1` (configuration not stated), for which the displacement is 13.6%. As to `COC(=O)C1C(=O)NCC1c1ccccc1` (configuration not stated), the displacement is 9.5%. As for `COC(=O)/C(=C/C(=O)c1ccc([N+](=O)[O-])cc1)Nc1ccc(Br)cc1`, the figure is 4.7%. As for `CC(=O)n1cc(Nc2ccccc2O)c2ccccc21`, the figure is 7.1%. The value for `COc1cc(OC)c(OC)cc1CN1CCN(C(=O)c2ccc(F)cc2)CC1` was 0.1%; that for `O=C(NCC1CCN(C(=O)c2ccc(F)cc2)CC1)c1ccc(F)cc1` was -35.7%; that for `CC(=O)c1cccc(NC(=O)c2cncc(Br)c2)c1` was 30.2%. On to `Cc1cc2ncn(CC(=O)N3CCOCC3)c2cc1C`, for which the displacement worked out at 12.3%. As for `O=C1C(=O)N(Cc2ccc3c(c2)OCO3)C2C=CC=CC12` (configuration not stated), the figure is 10.1%; as for `CC(C)c1ccc(OCCN2CCOCC2)cc1`, -4.6%. The value for `CCNC(=S)NNC(=O)CSc1nnc(-c2ccc(OC)c(OC)c2)n1-c1ccccc1` was -20.1%. The value for `COCCCNC(=O)CN(c1cc(OC)ccc1OC)S(C)(=O)=O` was 0.1%; that for `COC(=O)C1=C(C)NC2=C(C(=O)CCC2)C1c1ccc(Cl)cc1` (configuration not stated) was 2.2%; that for `C/C(Cn1nnc([N+](=O)[O-])n1)=N\NC(=O)c1ccc(C)cc1` was -6.4%. On to `Cc1ccc(S(=O)(=O)Nc2cc([N+](=O)[O-])ccc2Cl)cc1`, for which the displacement was -9.3%. Turning to `CC(NS(=O)(=O)c1cccc([N+](=O)[O-])c1)c1ccccc1` (configuration not stated), the displacement amounted to 6.1%. As for `O=C(Nc1ccc(Cc2ccncc2)cc1)C(c1ccccc1)c1ccccc1`, the figure is -9.6%; as for `CCOC(=O)C1(C)C=C(O)C(=O)N1c1ccc(Br)cc1` (configuration not stated), -11.6%. The value for `Cc1cccc(NC(=O)C2C(C(=O)O)C3C=CC2C32CC2)c1` (configuration not stated) was -1.1%; that for `O=C(Nc1ccc(N2CCOCC2)cc1)c1cccc2c(Br)cccc12` was 13.3%. As for `O=C(/C=C/c1ccc(F)cc1)Nc1ccccc1Br`, the figure is 8.5%; as for `O=C1SC(N2CCOCC2)C(=O)N1c1ccccc1` (configuration not stated), 5.1%; as for `COCc1cc(C)nc(NNC(=S)Nc2ccccc2)c1C#N`, -9.8%. Regarding `O=c1c2c(nc3cc(-c4cccs4)[nH]n13)CCS2`, the displacement stood at 75.8%. As for `CCOc1ccc(NC(=S)NC(NC(=O)c2ccc(Cl)cc2Cl)C(Cl)(Cl)Cl)cc1` (configuration not stated), the figure is 9.1%. As for `O=C(C(c1ccccc1)c1ccccc1)N1CCN(Cc2cccnc2)CC1`, the figure is -16.4%. In the case of `O=C(N/C(=C/c1ccc(Br)cc1)C(=O)N1CCCCC1)c1ccccc1`, the displacement was -0.8%.

On to `Cc1ccc(/C=N/N=C/c2ccc(C)cc2)cc1`, for which the displacement was determined as 2.2%. The value for `Cc1cc(C)n(C(=O)CCN2C(=O)c3ccccc3C2=O)n1` was 5.3%. As for `CN(CCO)S(=O)(=O)c1ccc2c(c1)Cc1cc(S(=O)(=O)N(C)CCO)ccc1-2`, the figure is 9.2%. As for `Cc1ccc(OCC(=O)Nc2ccccc2CO)c(Br)c1`, the figure is -3.8%; as for `O=C(Nc1cccc(Cl)c1Cl)C(c1ccccc1)c1ccccc1`, -5.5%; as for `COc1ccccc1-c1c(C(F)(F)F)oc2cc(O)ccc2c1=O`, 6.5%. With `COc1ccc(CNCc2ccc(OC)c(OC)c2)cc1`, the displacement is 1.8%. As for `Cc1ccc(-c2cc(C(F)(F)F)n3ncc(C(=O)N4CCN(Cc5ccccc5)CC4)c3n2)cc1`, the figure is -2.4%. The value for `COc1cc(C(=O)N2CCC(Cc3ccccc3)CC2)c([N+](=O)[O-])cc1OC` was 9.6%; that for `O=C1CSC(=O)N1c1ccc(Cl)cc1` was 6.1%. As for `Cc1ccccc1NC(=O)CC1c2ccccc2CC(C)(C)N1C` (configuration not stated), the figure is 1.7%; as for `Cn1c2c(c(=O)n(C)c1=O)C(c1ccc(F)cc1)C1=C(N2)c2ccccc2C1=O` (configuration not stated), -3.5%. As for `O=C(NC(=S)Nc1ccc(NC(=O)c2ccco2)c(Cl)c1)c1ccco1`, the displacement amounted to 12.6%.

Consider `COCCCNCCOCCOc1ccc(Cl)cc1C`, for which the displacement is -0.6%.

For `O=C1C(=O)N(Cc2ccc(Cl)c(Cl)c2)C2C=CC=CC12` (configuration not stated), the displacement came to 9.6%.

In the case of `O=C1CCC(C23CC4CC(CC(C4)C2)C3)=NN1`, the displacement amounted to 8.3%. The value for `O=C(N/N=C\c1ccc[nH]1)c1cccs1` was 0.3%. The value for `O=C(CSc1nc2ccccc2o1)N1c2ccccc2Sc2ccccc21` was -7.6%.

The values are drawn from PubChem BioAssay AID1240 (Sanford-Burnham Center for Chemical Genomics, 2008).
